In all, about 2,900 compounds were measured (“IRF Lucia reporter activity, fold change vs agonist alone”: median about 0.9, highest 2% from about 2.8 on). The list shows a part of the results.
Key:
RAW-Dual [1] = assay: IRF Lucia reporter activity, fold change vs agonist alone; cytotoxicity flag (confluency mask): not cytotoxic; higher = enhanced IRF activity
Summary of the method: (§1)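 Cytotoxic wells were those whose IncuCyte confluency was below 70% of agonist controls in both mask sets. The cells were RAW-Dual macrophages at 50,000 cells/well in DMEM on 384-well plates, dosed with 50 nL of library stock by pin tool, stimulated with a PRR agonist 1 h later, and kept at 37 °C, 5% CO2 for 20 hours. IRF and NF-κB reporter activity, as fold change over agonist-alone wells, came from supernatant read by QuantiLuc luminescence and QuantiBlue absorbance, respectively.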

RAW-Dual [2] = assay: IRF Lucia reporter activity, fold change vs agonist alone; higher = enhanced IRF activity; details: agonist: MPLA (TLR4) […]
Summary of the method: as §1

RAW-Dual [3] = assay: IRF Lucia reporter activity, fold change vs agonist alone; cytotoxicity flag (confluency mask): cytotoxic (confluency <70% of control); higher = enhanced IRF activity
Summary of the method: as §1

[4] = agonist: 3'3'-cGAMP (STING) 10 ug/mL
[5] = library stock concentration (final ~1000-fold dilution): 10 mM, cytotoxicity flag (confluency mask): not cytotoxic
[6] = library stock concentration (final ~1000-fold dilution): 10 mM, cytotoxicity flag (confluency mask): cytotoxic (confluency <70% of control)

Q: For `CCOC(=O)CCNc1cc(N2CCc3ccccc3CC2)nc(-c2ccccn2)n1.Cl` (library stock concentration (final ~1000-fold dilution): 10 mM), which “IRF Lucia reporter activity” value (RAW-Dual [1]; [4]) is on record?
A: Its value is 1.03.

Q: What about the “IRF Lucia reporter activity” value (RAW-Dual [1]; agonist: LPS (TLR4) 0.1 ug/mL) of the same compound?
A: Its value is 1.04.

Q: For `CCOC(=O)CCNc1cc(N2CCc3ccccc3CC2)nc(-c2ccccn2)n1.Cl`, which “IRF Lucia reporter activity” value (RAW-Dual [2]; [5]) is on record?
A: Its value is 1.

Q: Which “IRF Lucia reporter activity” value (RAW-Dual [1]; [4]) does the source give for `O=C(O)CCC(O)C(=O)O` (centres undefined) (library stock concentration (final ~1000-fold dilution): 10 mM water) here?
A: The value was 1.24.

Q: And the “IRF Lucia reporter activity” value (RAW-Dual [1]; agonist: LPS (TLR4) 0.1 ug/mL)?
A: Its value is 0.916.

Q: `CC1=C(C(=O)OCCN(Cc2ccccc2)c2ccccc2)C(c2cccc([N+](=O)[O-])c2)C(P2(=O)OCC(C)(C)CO2)=C(C)N1` (centres undefined) (library stock concentration (final ~1000-fold dilution): 10 mM) was tested. Which “IRF Lucia reporter activity” value (RAW-Dual [1]; [4]) did it give?
A: The value was 0.719.

Q: And the “IRF Lucia reporter activity” value (RAW-Dual [1]; agonist: LPS (TLR4) 0.1 ug/mL)?
A: The value was 1.23.

Q: `CC1=C(C(=O)OCCN(Cc2ccccc2)c2ccccc2)C(c2cccc([N+](=O)[O-])c2)C(P2(=O)OCC(C)(C)CO2)=C(C)N1` (centres undefined) was tested. Which “IRF Lucia reporter activity” value (RAW-Dual [2]; [5]) did it give?
A: Its value is 0.768.

Q: For `CCCNS(=O)(=O)Nc1ncnc(OCCOc2ncc(Br)cn2)c1-c1ccc(Br)cc1` (library stock concentration (final ~1000-fold dilution): 10 mM), which “IRF Lucia reporter activity” value (RAW-Dual [1]; [4]) is on record?
A: The value was 0.396.

Q: And the “IRF Lucia reporter activity” value (RAW-Dual [1]; agonist: LPS (TLR4) 0.1 ug/mL)?
A: The value was 0.362.

Q: How did the “IRF Lucia reporter activity” value (RAW-Dual [1]; [4]) turn out when `COc1c(O)cc(O)c2c(=O)cc(-c3ccccc3)oc12` (library stock concentration (final ~1000-fold dilution): 10 mM) was run?
A: The value was 0.682.

Q: And the “IRF Lucia reporter activity” value (RAW-Dual [1]; agonist: LPS (TLR4) 0.1 ug/mL)?
A: The value was 0.768.

Q: How did the “IRF Lucia reporter activity” value (RAW-Dual [2]; [5]) turn out when `COc1c(O)cc(O)c2c(=O)cc(-c3ccccc3)oc12` was run?
A: The value was 0.708.

Q: With `Cc1ccc(NC(=S)NNc2c([N+](=O)[O-])cc(C(F)(F)F)cc2[N+](=O)[O-])cc1Cl` (library stock concentration (final ~1000-fold dilution): 10 mM) as the compound, how does the “IRF Lucia reporter activity” value (RAW-Dual [1]; [4]) read?
A: Its value is 0.0347.

Q: And the “IRF Lucia reporter activity” value (RAW-Dual [1]; agonist: LPS (TLR4) 0.1 ug/mL)?
A: The value was 0.808.

Q: `Nc1ccc(S(N)(=O)=O)cc1` (library stock concentration (final ~1000-fold dilution): 10 mM) was tested. Which “IRF Lucia reporter activity” value (RAW-Dual [1]; [4]) did it give?
A: The value was 1.02.

Q: And the “IRF Lucia reporter activity” value (RAW-Dual [1]; agonist: LPS (TLR4) 0.1 ug/mL)?
A: Its value is 0.951.

Q: Which “IRF Lucia reporter activity” value (RAW-Dual [2]; [5]) does the source give for `Nc1ccc(S(N)(=O)=O)cc1` here?
A: The value was 0.943.

Q: Which results are given for `O=C(CCN1CCN(C(=O)OCc2cc(Cl)cc(Cl)c2)CC1)c1ccc2[nH]c(=O)oc2c1` (library stock concentration (final ~1000-fold dilution): 10 mM)?
A: IRF Lucia reporter activity (RAW-Dual [1]; [4]): 0.456; IRF Lucia reporter activity (RAW-Dual [1]; agonist: LPS (TLR4) 0.1 ug/mL): 0.499

Q: Which “IRF Lucia reporter activity” value (RAW-Dual [1]; [4]) does the source give for `Cc1c(-c2ccc(C(N)=O)c3[nH]c4cc(C(C)(C)O)ccc4c23)cccc1-n1cnc2ccccc2c1=O` (library stock concentration (final ~1000-fold dilution): 10 mM) here?
A: Its value is 0.0171.

Q: What about the “IRF Lucia reporter activity” value (RAW-Dual [1]; agonist: LPS (TLR4) 0.1 ug/mL) of the same compound?
A: The value was 0.0247.

Q: `COc1ccc(-c2oc3c(CC=C(C)C)c(O)cc(O)c3c(=O)c2O)cc1` (library stock concentration (final ~1000-fold dilution): 10 mM) was tested. Which “IRF Lucia reporter activity” value (RAW-Dual [1]; [4]) did it give?
A: Its value is 1.06.

Q: And the “IRF Lucia reporter activity” value (RAW-Dual [1]; agonist: LPS (TLR4) 0.1 ug/mL)?
A: Its value is 0.864.

Q: How did the “IRF Lucia reporter activity” value (RAW-Dual [1]; [4]) turn out when `CCCCNc1ncc(-c2ccc(CN3CCOCC3)cn2)c(NC2CCC(O)CC2)n1` (centres undefined) (library stock concentration (final ~1000-fold dilution): 2 mM) was run?
A: The value was 0.687.

Q: And the “IRF Lucia reporter activity” value (RAW-Dual [1]; agonist: LPS (TLR4) 0.1 ug/mL)?
A: The value was 0.485.

Q: How did the “IRF Lucia reporter activity” value (RAW-Dual [2]; library stock concentration (final ~1000-fold dilution): 2 mM, cytotoxicity flag (confluency mask): not cytotoxic) turn out when `CCCCNc1ncc(-c2ccc(CN3CCOCC3)cn2)c(NC2CCC(O)CC2)n1` (centres undefined) was run?
A: Its value is 0.982.

Q: With `CS(=O)(=O)O.O=C(Nc1cccc(Cl)c1)Nc1ncc(CCNc2ncnc3ccsc23)s1` as the compound, how does the “IRF Lucia reporter activity” value (RAW-Dual [2]; [6]) read?
A: The value was 0.627.

Q: Which results are given for `CS(=O)(=O)O.O=C(Nc1cccc(Cl)c1)Nc1ncc(CCNc2ncnc3ccsc23)s1` (library stock concentration (final ~1000-fold dilution): 10 mM)?
A: IRF Lucia reporter activity (RAW-Dual [3]; [4]): 0.193; IRF Lucia reporter activity (RAW-Dual [3]; agonist: LPS (TLR4) 0.1 ug/mL): 0.396

Q: What does the source list for `Br.COc1ccc2c3c1OC1CC(O)C=CC31CCN(C)C2` (centres undefined) (library stock concentration (final ~1000-fold dilution): 10 mM water)?
A: IRF Lucia reporter activity (RAW-Dual [1]; [4]): 0.816; IRF Lucia reporter activity (RAW-Dual [1]; agonist: LPS (TLR4) 0.1 ug/mL): 0.47

Q: With `Br.COc1ccc2c3c1OC1CC(O)C=CC31CCN(C)C2` (centres undefined) as the compound, how does the “IRF Lucia reporter activity” value (RAW-Dual [2]; library stock concentration (final ~1000-fold dilution): 10 mM water, cytotoxicity flag (confluency mask): not cytotoxic) read?
A: The value was 1.08.

Q: With `CN(C(=O)n1cnc(-c2ccc[n+]([O-])c2)c1)C1CCCCC1` as the compound, how does the “IRF Lucia reporter activity” value (RAW-Dual [2]; [5]) read?
A: Its value is 0.99.

Q: `CN(C(=O)n1cnc(-c2ccc[n+]([O-])c2)c1)C1CCCCC1` (library stock concentration (final ~1000-fold dilution): 10 mM) was tested. Which “IRF Lucia reporter activity” value (RAW-Dual [1]; [4]) did it give?
A: Its value is 0.972.

Q: What about the “IRF Lucia reporter activity” value (RAW-Dual [1]; agonist: LPS (TLR4) 0.1 ug/mL) of the same compound?
A: The value was 0.748.

Q: Which results are given for `CC(CN1CC(=O)NC(=O)C1)N1CC(=O)NC(=O)C1.Cl` (centres undefined) (library stock concentration (final ~1000-fold dilution): 10 mM)?
A: IRF Lucia reporter activity (RAW-Dual [1]; [4]): 0.912; IRF Lucia reporter activity (RAW-Dual [1]; agonist: LPS (TLR4) 0.1 ug/mL): 0.896

Q: With `CC(CN1CC(=O)NC(=O)C1)N1CC(=O)NC(=O)C1.Cl` (centres undefined) as the compound, how does the “IRF Lucia reporter activity” value (RAW-Dual [2]; [5]) read?
A: Its value is 1.

Q: With `Nc1nc(Nc2ccc(S(N)(=O)=O)cc2)nn1C(=O)c1c(F)cccc1F` (library stock concentration (final ~1000-fold dilution): 10 mM) as the compound, how does the “IRF Lucia reporter activity” value (RAW-Dual [3]; [4]) read?
A: Its value is 0.146.

Q: What about the “IRF Lucia reporter activity” value (RAW-Dual [3]; agonist: LPS (TLR4) 0.1 ug/mL) of the same compound?
A: The value was 0.259.

Q: For `Nc1nc(Nc2ccc(S(N)(=O)=O)cc2)nn1C(=O)c1c(F)cccc1F`, which “IRF Lucia reporter activity” value (RAW-Dual [2]; [6]) is on record?
A: The value was 0.336.

Q: For `Cc1cc(N2CC(C)NC(C)C2)ncc1-c1ccc(-c2nc3c(ccn3C)c(=O)[nH]2)cc1` (centres undefined) (library stock concentration (final ~1000-fold dilution): 10 mM), which “IRF Lucia reporter activity” value (RAW-Dual [1]; [4]) is on record?
A: Its value is 0.527.

Q: And the “IRF Lucia reporter activity” value (RAW-Dual [1]; agonist: LPS (TLR4) 0.1 ug/mL)?
A: Its value is 1.29.
